Key:
[1] = tested on: monkey LIFR-ECD; assay: ELISA binding of antibodies to monkey LIFR-ECD at the protein level
Experimental: (§1) The binding ability of the 15 antibodies prepared in examples 1-4 of the present invention to the LIFR-ECD protein was detected based on the ELISA assay method. The binding affinity of different antibodies was determined by comparing their dose response binding curves to LIFR-ECD protein. The specific experimental process is as follows: First, human LIFR-ECD, monkey LIFR-ECD and mouse LIFR-ECD proteins are diluted to a concentration of 1 μg/mL, added to a 96-well plate (100 μL per well) and placed at 4° C. overnight. The 96-well plates were washed three times with PBST solution and then placed at 37° C. for 1 h with the addition of 2% BSA in PBS solution. Antibody seris dilution is prepared and (100 nM, 10-fold-dilution), added to a 96-well plate and incubate at 37° C. for 1 h. After washing three times with PBST solution, add anti-human IgG Fc-HRP secondary antibody (for 5000× dilution) and incubate at 37° C. for 30-60 min. After washing three times with PBST solution, add TMB color development solution for 5-15 minutes, and then add termination solution to ternimate the color development.

[2] = target: T1, mouse LIFR-ECD (Mus musculus, UniProt P42703); assay: ELISA binding of antibodies to mouse LIFR-ECD at the protein level
T1 construct: mouse LIFR-ECD proteins
T1 sequence (P42703 44-828 limits assumed): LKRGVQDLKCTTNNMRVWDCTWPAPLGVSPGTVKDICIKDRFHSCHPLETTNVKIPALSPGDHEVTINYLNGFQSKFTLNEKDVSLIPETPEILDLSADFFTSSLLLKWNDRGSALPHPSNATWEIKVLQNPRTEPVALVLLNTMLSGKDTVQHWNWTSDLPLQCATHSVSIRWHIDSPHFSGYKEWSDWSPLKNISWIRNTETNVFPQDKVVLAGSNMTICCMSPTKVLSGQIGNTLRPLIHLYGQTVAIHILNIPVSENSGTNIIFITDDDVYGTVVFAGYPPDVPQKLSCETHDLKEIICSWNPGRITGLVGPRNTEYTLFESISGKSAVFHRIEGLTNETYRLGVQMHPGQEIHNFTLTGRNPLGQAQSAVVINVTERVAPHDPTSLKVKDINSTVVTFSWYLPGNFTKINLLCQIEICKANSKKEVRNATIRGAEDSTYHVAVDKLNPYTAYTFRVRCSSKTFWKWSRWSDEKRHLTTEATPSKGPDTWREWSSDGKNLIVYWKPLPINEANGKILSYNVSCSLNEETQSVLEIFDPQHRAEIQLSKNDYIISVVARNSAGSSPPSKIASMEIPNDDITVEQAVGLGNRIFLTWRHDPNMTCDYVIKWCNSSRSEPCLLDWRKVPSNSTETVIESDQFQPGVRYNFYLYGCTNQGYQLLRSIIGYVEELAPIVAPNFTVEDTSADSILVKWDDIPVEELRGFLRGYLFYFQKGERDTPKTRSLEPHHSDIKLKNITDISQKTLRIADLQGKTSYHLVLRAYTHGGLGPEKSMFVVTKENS
Experimental: as §1

[3] = target: T2, human LIFR expressed on the surface of 293T cells (Homo sapiens, UniProt P42702); assay: Flow cytometry binding to HEK293T-huLIFR cells; conditions: median fluorescence curve span
T2 construct: expressed in transfected cells; host or cells: HEK293T, lentiviral transduction (lenti-huLIFR), puromycin selection, monoclonal line
T2 sequence (P42702 45-1097): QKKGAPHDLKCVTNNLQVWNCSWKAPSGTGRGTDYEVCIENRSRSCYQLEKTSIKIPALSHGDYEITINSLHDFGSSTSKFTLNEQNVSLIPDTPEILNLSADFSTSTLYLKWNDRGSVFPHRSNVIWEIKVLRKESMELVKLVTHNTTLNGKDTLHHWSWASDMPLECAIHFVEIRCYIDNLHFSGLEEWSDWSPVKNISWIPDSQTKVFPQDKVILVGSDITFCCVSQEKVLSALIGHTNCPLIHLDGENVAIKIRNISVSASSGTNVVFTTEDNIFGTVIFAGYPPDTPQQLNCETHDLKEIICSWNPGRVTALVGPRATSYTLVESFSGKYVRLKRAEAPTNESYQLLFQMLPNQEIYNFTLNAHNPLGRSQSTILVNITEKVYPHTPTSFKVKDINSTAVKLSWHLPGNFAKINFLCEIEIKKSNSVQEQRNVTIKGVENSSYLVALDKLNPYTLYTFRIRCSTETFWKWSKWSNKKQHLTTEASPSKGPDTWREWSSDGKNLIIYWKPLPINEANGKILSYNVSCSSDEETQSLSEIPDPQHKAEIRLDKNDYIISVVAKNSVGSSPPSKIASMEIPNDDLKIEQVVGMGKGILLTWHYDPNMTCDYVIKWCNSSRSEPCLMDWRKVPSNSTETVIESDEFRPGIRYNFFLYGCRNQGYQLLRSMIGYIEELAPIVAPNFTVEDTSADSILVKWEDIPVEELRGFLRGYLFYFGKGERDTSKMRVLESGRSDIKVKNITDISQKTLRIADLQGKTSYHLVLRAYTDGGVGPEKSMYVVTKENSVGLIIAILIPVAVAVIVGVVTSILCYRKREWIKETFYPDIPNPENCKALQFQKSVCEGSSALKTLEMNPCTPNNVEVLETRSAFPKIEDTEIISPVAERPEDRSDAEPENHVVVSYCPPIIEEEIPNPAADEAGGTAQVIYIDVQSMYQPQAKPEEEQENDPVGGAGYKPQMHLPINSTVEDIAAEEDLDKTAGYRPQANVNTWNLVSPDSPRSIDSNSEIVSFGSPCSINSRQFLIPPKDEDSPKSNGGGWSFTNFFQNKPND
Experimental: The flow cytometry assay was used to detect the binding affinity of the five antibodies PR300516, PR301127, PR301152, PR301168, and PR301211 prepared in examples 1-4 to human LIFR expressed on the surface of 293T cells or human LIFR/gp130 heterodimer. The binding ability of different antibodies was determined by comparing the binding curves of human LIFR expressed on the surface of 293T cells or human LIFR/gp130 heterodimer.
The specific experimental process is: (1) Use lenti-huLIFR and lenti-LIFR/gp130 lentivirus to infect HEK293T cells, screen the infected cells with puromycin to obtain a stable cell pool: HEK293T-huLIFR and HEK293T-huLIFR/gp130; (2) Perform subclone screening on the stable cell pool to obtain a monoclonal cell line that highly expresses the target gene; (3) make series dilution of test antibody and incubate with the monoclonal cell line at 4° C. for 30 minutes, and wash three times with PBS, use FITC-labeled goat anti-human secondary antibody to incubate with 4° C. for 30 min, wash with PBS three times again, resuspend the cells in 100 μL FACS buffer; (4) The EC50 and the peak of the curve were compared using the logarithm of the antibody concentration with a base of 10 as the horizontal coordinate and the median fluorometric value of one channel as the vertical coordinate.

[4] = target: T3, human LIFR-ECD (Homo sapiens, UniProt P42702); assay: ELISA binding of antibodies to human LIFR-ECD at the protein level
T3 construct: The extracellular region (1-833 a.a.) of recombinant human LIFR protein; His tag; made in house; host or cells: HEK293 (transient transfection, purified from culture supernatant)
T3 sequence (P42702 45-833): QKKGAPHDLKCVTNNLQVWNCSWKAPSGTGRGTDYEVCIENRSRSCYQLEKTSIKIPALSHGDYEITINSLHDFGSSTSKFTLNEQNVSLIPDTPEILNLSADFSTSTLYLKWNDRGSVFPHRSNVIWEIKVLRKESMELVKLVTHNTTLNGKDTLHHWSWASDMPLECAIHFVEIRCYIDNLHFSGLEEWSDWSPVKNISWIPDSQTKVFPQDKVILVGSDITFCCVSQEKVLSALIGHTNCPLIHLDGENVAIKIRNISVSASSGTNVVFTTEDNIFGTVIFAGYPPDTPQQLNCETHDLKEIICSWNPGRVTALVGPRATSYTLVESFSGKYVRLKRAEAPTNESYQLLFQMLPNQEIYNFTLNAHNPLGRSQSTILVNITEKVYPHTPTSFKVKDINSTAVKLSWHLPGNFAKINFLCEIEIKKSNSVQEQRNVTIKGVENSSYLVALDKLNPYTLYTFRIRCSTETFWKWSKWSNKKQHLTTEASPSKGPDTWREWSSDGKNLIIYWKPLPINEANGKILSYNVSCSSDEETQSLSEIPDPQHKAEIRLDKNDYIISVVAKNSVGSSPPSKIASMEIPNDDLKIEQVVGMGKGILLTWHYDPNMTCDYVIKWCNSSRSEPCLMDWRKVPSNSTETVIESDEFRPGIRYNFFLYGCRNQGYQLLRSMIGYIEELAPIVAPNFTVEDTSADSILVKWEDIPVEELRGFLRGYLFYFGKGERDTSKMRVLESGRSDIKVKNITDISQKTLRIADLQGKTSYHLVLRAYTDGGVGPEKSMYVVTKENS
Experimental: as §1

B1: PR301127: fully human anti-LIFR IgG1 antibody; VH SEQ ID NO: 58, VL SEQ ID NO: 66, HC SEQ ID NO: 82, LC SEQ ID NO: 90 (antibody)
heavy: EVQLLQSGGGLVQPGGSLRLSCAASGFTFSNYAMTWVRQAPGKGLEWVSTISGSGAFTYYADAVKGRFTISRVNSKNSLDLQMNSLRAEDTAVYYCAKGGILTGFDNWGQGTLVTVSS[here human IgG1 constant region without letters]
light: DIQMTQSPSTLSASVGDRVTITCRASQSISSWLAWYQQKPGKAPKLLIYKASSLESGVPSRFSGSGSGTEFSFTISSLQPDDFATYYCQQYKSFSPGGLTFGGGTKVEIKRTVAAPSVFIFPPSDEQLKSGTASVVCLLNNFYPREAKVQWKVDNALQSGNSQESVTEQDSKDSTYSLSSTLTLSKADYEKHKVYACEVTHQGLSSPVTKSFNRGEC
[1]
  binding ability to monkey LIFR-ECD protein (in words): have binding ability
[2]
  cross-binding to mouse LIFR-ECD protein (in words): can cross-binding
[3]
  Span: 237
[4]
  binding ability to human LIFR-ECD protein (in words): have binding ability

Reference: patent US20250136702A1, “HUMAN LIFR ANTIGEN BINDING PROTEIN, PREPARATION METHOD THEREFOR, AND APPLICATION THEREOF” (NONA BIOSCIENCES (SUZHOU) CO., LTD., priority 2020, published 2025)
